Laboratory results taken from the supplement of paper PMC10126150.
Values marked as one replicate rest on one cluster of the flow cell; about a third of the high ones do not repeat.

System: ATP
Test: switch fluorescence ratio, 500 uM ATP over buffer (Cy3 cluster intensity, sum of 5 cycles each) (fold (ratio)); higher = stronger signal-on switching upon ATP binding; sequences stand for … in TCGTCGGCAGCGTCAGATGTGTATAAGAGACAGTTTTTTTTTTTTTTTTTTTTTTTTT…TC
Details: aptamer strand: ATP DNA aptamer (quencher-CACCTGGGGGAGTATTGCGGAGGAAGG + anchor), 100 nM annealed; ATP concentration: 500 uM; one replicate
Outline: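 Clusters with intensities outside 100-1000 RFU were excluded. The remaining Cy3-labelled switching-strand clusters on a modified Illumina MiSeq flow-cell had been annealed to 100 nM quencher-labelled ATP aptamer and imaged in selection buffer, then after 15 min with 500 uM ATP at 22 °C, for five cycles separated by NaOH stripping and re-annealing. The fluorescence ratio, averaged per switch-domain sequence, is each cluster's summed target-cycle Cy3 intensity over its summed buffer-cycle Cy3 intensity.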
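Note: ATP exposure 15 min at 22 °C before imaging.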

Sequence | switch fluorescence ratio
GAATTGTAGG | 0.992
GATAGCGGCA | 1.03
CACTTAGTGA | 0.994
AGTTTCTTGG | 0.982
CATACGGGAA | 1.23
ATTGATGGA | 1.01
ACAATGAATA | 1.02
ATTAAGCTTC | 1.07
TAGTTGTGAC | 1.07
TCGAGCCAAT | 1.72
GTTGCGGGTG | 1.01
TATGAATGCA | 1.04
TTGGCACACG | 0.968
ATTAACATTG | 0.999
TTGTGAGGTG | 1.05
TAGATATACC | 0.966
TGCTCTTGGT | 1.03
ACCGGGGTTG | 1.01
GCTGGTGAA | 1.01
CTCGGTTTGA | 1.02
ACCGGTGGGG | 0.929
CGGGCAACG | 1.01
GTGCGTAATT | 1.02

Sequence | switch fluorescence ratio
ACCGCTGGGT | 1.05
ACGAAATTT | 1.05
CAGTCCTTAG | 0.991
GATAGAGGCT | 0.979
ATGACCTCTA | 0.989
AATTCGACCA | 1.03
TGCACAGCTT | 1.04
CTTGCGACAT | 1.08
CACCGAAGGA | 1.02
TAAGACGGG | 1.01
ATTTTCTCGC | 1.08
TTGATTACTG | 1.06
TTAGAGTTAG | 1
GGGATGTGG | 0.984
TTAGATCCTT | 1
TAACGGTAGG | 1.04
GGATGCGGAT | 1.06
GGGATAAATC | 1.01
GAAATTATGG | 1
TTAACTCTAC | 1.15
GATTTAGTCT | 1.06
GGTTTTTACC | 0.985
TATGGGGGG | 1.02

Sequence | switch fluorescence ratio
AAAACTCGGT | 0.982
AGGAAGTACG | 1.14
CTCCCTTCCA | 1.36
CGAGAGGGCT | 0.973
CGACTGAGC | 1.06
GCAAGCATAT | 1.11
CGACCTGCT | 1.02
GCGTGTGTG | 1.05
TTGCTCGTAT | 0.969
TATTAGATCC | 0.969
ACCGCTTATA | 1.85
GGGATGGTGC | 1.02
GACAAAGGGG | 0.977
GGAGGGCGTA | 1
TTTAGACGG | 1.02
TCATATCGTA | 0.975
ACGGAGCTGG | 2.01
AAACTTATTA | 0.976
ATTAACTCAT | 1.06
TGTTTACCAT | 1.02
GCAGGTTAGG | 1
CGCCATTAA | 1.07
AGCGGGATTC | 1.09

Sequence | switch fluorescence ratio
CAGGACTAGT | 1
GAAAAGCAGA | 1.01
TGCTAGTCTG | 0.95
GGCTTAACTA | 0.992
TAAGCTAAAC | 1.26
GCTACATTAG | 1.01
GCCTATTAAC | 1
AGGGGCGCGG | 1
GGGAGTGGTT | 0.987
TGGTATTTAC | 1.15
GGAAGGTGGA | 1.02
TAGGCCCATT | 1.01
TTGCCCCCGT | 1.01
CTGGACGGGT | 1.04
GTGGGGCTTC | 0.969
GTTGTCACGA | 1.04
CACAAGTATG | 1.01
AAGCACGTGT | 1.01
GGACGACCGT | 1.03
GCTAGAGGCA | 1
TGTGATACGC | 1.12
TCCTTTACTC | 1.23
AGAGTTCTCT | 0.998

Sequence | switch fluorescence ratio
CCTTGGCAGA | 3.08
AACGACGCTT | 1.06
TACAGGACAA | 1.1
AGAATTAGCT | 1.03
GTAATCAGAT | 1.02
TAGTAGATAT | 1
GGCTTTCAAG | 0.953
CGTCAGGACC | 1.13
TGGGCGACA | 1
AAGGGCGCGT | 0.961
TGGGGAATCC | 1.04
TTGCGTAAAT | 1.1
AAGCATGCTA | 0.984
TAGCGCACGT | 1.01
CTAGTTATTC | 0.907
CGTATAATGA | 1.01
CTAAGTGATC | 1.13
CGATCGTACA | 1.04
CGTGAAAGAA | 0.962
AACGAGACAT | 1.12
CTCAGATTCT | 1.02
TGCCTTGAGT | 1.03
GGTCTTGCCG | 0.964

Sequence | switch fluorescence ratio
TTCCGTCCTT | 0.983
GGACTTGACT | 1.03
CAAAGTACGG | 1.16
GAAGTTTTA | 1.04
TAGCGCAGGA | 1.03
CAGGCGTGTC | 1
GGAGTAGCTC | 1.02
AGTAACAAAT | 0.999
ATGTGAACCC | 1.05
TTCCGTATGG | 1.02
GGCCGTTTTG | 0.961
CGGGTCTGCG | 0.989
TTATCGGGTG | 1.06
GATAAGCGAC | 1.1
CGAAAAGGGC | 1.03
GGTTTATTCG | 1.17
TGGGGATACA | 1.04
AGAATGCCTG | 1.01
ACTGTGCGCT | 0.983
CGCAATCTGA | 3.1
CAATCTGTTT | 1.02
AGTAGGAAAC | 1.05
CCTCGTGTCG | 1.04

Sequence | switch fluorescence ratio
CCGTCGAAGG | 1.09
GGGAATAAC | 0.984
CGTTCAGTTA | 1.02
ATCCGTCCGG | 0.993
GTATGTACCA | 1.01
TCGGTTCCTT | 1.02
ACCATACACG | 1.24
CGGCACAACC | 1.07
CTTGGAGCTA | 1.11
GTAAATTG | 0.972
ATTCGGTGAA | 0.985
TGCTATCGTC | 0.978
GTTATTGTAG | 0.962
ATCTGGTCCA | 0.991
TGATTAGTAT | 1.03
GGATTGCGGA | 0.975
GCCCACCCCT | 1.05
TGAGGAAGTG | 1
GGTTAGGTTG | 0.97
